Test results taken from paper PMC4040332 (ChemMedChem, 2013).

Test system: S. aureus
Assay: Cell wall lysis assay
Settings: 24 hours, tetracycline at concentrations up to 100-times the published MIC50

Structure (SMILES) | luminescence response (cell lysis control)
CC1(C)S[C@@H]2[C@H](NC(=O)[C@H](N)c3ccccc3)C(=O)N2[C@H]1C(=O)O [ampicillin] | dose-dependent increase in luminescence
CN(C)[C@@H]1C(O)=C(C(N)=O)C(=O)[C@@]2(O)C(O)=C3C(=O)c4c(O)cccc4[C@@](C)(O)[C@H]3C[C@@H]12 [tetracycline] | no increase in luminescence
